Measurements reported in the RNAGym collection of RNA variant scans (doi:10.7554/elife.90254).
Read counts are not given, so values of variants with three or more changes are uncertain.

B1: LINE1-full (parent)
chain: UACGUAGGUGGUUUUCCCCUGAUAGUGCUAAGGGGGCCUGGAAGUUUGGACUGGGCAGAGCUCAACACAGCGUGGCAAAGUGGCUGUGGCUAGACUGCCUCUCUGGAUUCCUCGUCACUCAGCAGGGCAUCUCUGAGAGAAAUGCC

Variants of: B1
Assay: self-cleavage, relative activity (ratio to wild type); higher = more cleavage; in vitro, sequencing; the parent is a self-cleaving ribozyme
Variant U47A U85C G88A A141G has a self-cleavage of 0.02. Work on U47A U85G U102C yielded a self-cleavage of 0.15. Work on U47A U100C A129G yielded a self-cleavage of 0.49. Variant U47A U108C A124U has a self-cleavage of 1.3. Work on U47A U109C A124G yielded a self-cleavage of 0.73. With U47A U109C A138G the self-cleavage was 1.47. For U47A U115A A121G, the self-cleavage was 1.65. U47A U119A U134C showed a self-cleavage of 1.66. With U47C A50G A140G the self-cleavage was 0.61. U47C A50G U85C showed a self-cleavage of 0.8. For U47C A57G A129G, the self-cleavage was 0.42. With U47C A57G U109A the self-cleavage was 0.84. U47C A57U A64G showed a self-cleavage of 0. For U47C A59G A69U U85A A142G, the self-cleavage was 0.08. U47C A59G C84U U143A showed a self-cleavage of 0.09. Work on U47C A59G U87A U132C yielded a self-cleavage of 0.2. U47C A59U U62G showed a self-cleavage of 0.05. U47C A64G G72A showed a self-cleavage of 0.33. Work on U47C A64G G127C yielded a self-cleavage of 0.4. For U47C A64U A78G A138U, the self-cleavage was 0.5. For U47C A65C U85A A92G U109C G114U, the self-cleavage was 0. U47C A65G A129G gave a self-cleavage of 0. U47C A65G A142G showed a self-cleavage of 0.13. With U47C A65G C84A A107G the self-cleavage was 0. Variant U47C A65G U73C has a self-cleavage of 0. Variant U47C A65G U109C A140G has a self-cleavage of 0. U47C A67G G72A A77U G88U gave a self-cleavage of 0.02. U47C A67G G125A A140G gave a self-cleavage of 0.8. Work on U47C A67U U130C yielded a self-cleavage of 0.63. With U47C A67U U134A A136G the self-cleavage was 0.06. Variant U47C A69G C103U has a self-cleavage of 0.35. Work on U47C A69G G80A U81A C90G A121U yielded a self-cleavage of 0.06. In the case of U47C A69G G83A, the self-cleavage is reported as 0.16. Variant U47C A69U A79G has a self-cleavage of 0.07. For U47C A69U G83A U91A G106A, the self-cleavage was 0.04. With U47C A77G A78G U109A the self-cleavage was 0. In the case of U47C A77G A117U, the self-cleavage is reported as 1.93. With U47C A77U A94G the self-cleavage was 0.09. U47C A77U A138C gave a self-cleavage of 1.36. Work on U47C A77U U108C A124G yielded a self-cleavage of 0.54. For U47C A78G A129G, the self-cleavage was 1.49. In the case of U47C A78G U112C, the self-cleavage is reported as 0. Variant U47C A79G C113U has a self-cleavage of 0.25. With U47C A79G U115C the self-cleavage was 0. With U47C A92G U108C the self-cleavage was 0.21. With U47C A92U A117G the self-cleavage was 0.46. With U47C A94G C98U the self-cleavage was 0.28. For U47C A94G U115C, the self-cleavage was 1.31. Variant U47C A94G U143A has a self-cleavage of 0.53. U47C A121U A129G gave a self-cleavage of 1.53. With U47C A121U A141G the self-cleavage was 1.6. Work on U47C A136G A141G yielded a self-cleavage of 1.62. In the case of U47C A140G C145U, the self-cleavage is reported as 1.31. With U47C C66U A79U A142G the self-cleavage was 0.04. For U47C C90U U108C U143C, the self-cleavage was 0.07. U47C C99U U100A U119C showed a self-cleavage of 1.9. For U47C G53U A142G, the self-cleavage was 1.41. Work on U47C G55U C84U U134C yielded a self-cleavage of 0.05. In the case of U47C G74A A78G, the self-cleavage is reported as 0.89. For U47C G127A A140G, the self-cleavage was 1.17. Work on U47C U52A A67G U134C yielded a self-cleavage of 0.42. In the case of U47C U52A C98G A124G, the self-cleavage is reported as 0.34. U47C U52C A121U gave a self-cleavage of 1.47. Work on U47C U52C U87A A136G yielded a self-cleavage of 0.09. U47C U62A A64U U132C showed a self-cleavage of 0.09. Work on U47C U62C A65G A67U C103U yielded a self-cleavage of 0.12. U47C U62C A77G C99U U134C gave a self-cleavage of 0.05. Variant U47C U62C U81A G86A A142G has a self-cleavage of 0.01. Work on U47C U73C C118U yielded a self-cleavage of 1.85. U47C U73C U100A gave a self-cleavage of 1.67. Variant U47C U73G U102A has a self-cleavage of 2.2. U47C U81C U96A C101U gave a self-cleavage of 0.07. With U47C U81C U130C the self-cleavage was 0.84. U47C U85A A121G A140G showed a self-cleavage of 0.38. U47C U85C C95U U134A gave a self-cleavage of 0.1. With U47C U85G A94C A121U G125U the self-cleavage was 0.18. Work on U47C U87C A138G A141U yielded a self-cleavage of 0.39. In the case of U47C U96C A138G, the self-cleavage is reported as 0.15. Variant U47C U100A A138G has a self-cleavage of 1.33. In the case of U47C U100C U104A, the self-cleavage is reported as 0.93. With U47C U102A A138G the self-cleavage was 2.53. Work on U47C U102C G127A yielded a self-cleavage of 2.02. U47C U104A A140G showed a self-cleavage of 0.44. For U47C U108C C120U, the self-cleavage was 1.58. Variant U47C U108C U119A A138G has a self-cleavage of 2.78. Work on U47C U108C U130C yielded a self-cleavage of 2.51. In the case of U47C U109A A140G, the self-cleavage is reported as 1.11. For U47C U112C A142G, the self-cleavage was 1.2. With U47C U112C U119C A140G the self-cleavage was 1.84. U47C U115A A142G showed a self-cleavage of 2.09. U47C U130C A138G gave a self-cleavage of 1.61. U47C U130C U143C gave a self-cleavage of 1.79. U47G A50G U109C A121U gave a self-cleavage of 0.44. For U47G A77U C128U, the self-cleavage was 1.35. U47G A94G U112C gave a self-cleavage of 0. U47G G54A U73C gave a self-cleavage of 0.17. With U47G G127U U143C the self-cleavage was 0.76. In the case of G48A A50U A69G U143C, the self-cleavage is reported as 0.33. In the case of G48A A50U U85A, the self-cleavage is reported as 0.06. G48A A69U U104A U112C A138G showed a self-cleavage of 0. In the case of G48A A78G A121G, the self-cleavage is reported as 2.22. G48A A78G C99A gave a self-cleavage of 0.31. With G48A A94C G126A the self-cleavage was 0.05. Work on G48A A107U A117G C128U yielded a self-cleavage of 1.74. Work on G48A G53A A64G A67G U102C A124G U132C yielded a self-cleavage of 0. With G48A G93U A136G the self-cleavage was 0. In the case of G48A U52G A65G G70A, the self-cleavage is reported as 0.05. In the case of G48A U62C A141G, the self-cleavage is reported as 0.05. G48A U87G C101U A140G showed a self-cleavage of 0.15. With G48A U96C A129U U132C A138G the self-cleavage was 0.14. For G48A U100C A138G A141G, the self-cleavage was 1.67. For G48U A94C U143A, the self-cleavage was 0.02. Work on G48U G82U A136C A142G yielded a self-cleavage of 1.22. With G48U U108C A124G the self-cleavage was 1.15. G48U U109C U134C showed a self-cleavage of 1.32. Work on G49A A50G G86A yielded a self-cleavage of 0.2. G49A A50G U115C U132C gave a self-cleavage of 1.02. G49A A59G G89A showed a self-cleavage of 0.03. G49A A64U U134C showed a self-cleavage of 0.38. For G49A A69G A94G U104A A124U, the self-cleavage was 0. With G49A A69U U87G A141G the self-cleavage was 0. Variant G49A A136G U143C has a self-cleavage of 1.08. Variant G49A G60C A92G A140G U143C has a self-cleavage of 0. Variant G49A U73A A77U has a self-cleavage of 0.71. G49A U81C A141G gave a self-cleavage of 1.16. In the case of G49A U85C U102A, the self-cleavage is reported as 0.2. Variant G49A U96G A142G has a self-cleavage of 0.02. G49A U115C U134C A140G gave a self-cleavage of 1.03. With G49A U132A A140G the self-cleavage was 0.67. With G49C A67C U85A the self-cleavage was 0.02. G49C C113U A141G gave a self-cleavage of 1.5. Work on G49U A78G U134C yielded a self-cleavage of 1.04. G49U U52A A77G U130C A136G showed a self-cleavage of 2.39. Work on A50C A64G G105A yielded a self-cleavage of 0.29. Work on A50C A141G U143C yielded a self-cleavage of 0.53. With A50C U62C A142G the self-cleavage was 0.12. With A50C U132A A141G the self-cleavage was 1.42. For A50G A57C A142G, the self-cleavage was 0. For A50G A59G A67G C98U, the self-cleavage was 0.1. In the case of A50G A65G A69U U115C, the self-cleavage is reported as 0. In the case of A50G A69U C99G U104A, the self-cleavage is reported as 0.09. A50G A77C A138U gave a self-cleavage of 0.6. A50G A77G G97U A121G gave a self-cleavage of 0.23. Variant A50G A77U A78G A79G has a self-cleavage of 0.77. In the case of A50G A77U G80A, the self-cleavage is reported as 0.67. A50G A77U U115A showed a self-cleavage of 0.95. In the case of A50G A78G A121U U134A A136G, the self-cleavage is reported as 0.47. Work on A50G A94U U119C yielded a self-cleavage of 0.24. Variant A50G A117U A124G has a self-cleavage of 1.02. For A50G A121G U132C, the self-cleavage was 0.61. With A50G C56A A107U the self-cleavage was 0.06. With A50G C61U A78G U108C A121G the self-cleavage was 0. In the case of A50G C63U U91A U134C, the self-cleavage is reported as 0.06. With A50G C71A A92G U100A U102A the self-cleavage was 0. A50G C111U U130C U143A showed a self-cleavage of 0.99. For A50G C118U A124G, the self-cleavage was 0.4. A50G G53U U115A showed a self-cleavage of 0.62. A50G G80A U85C gave a self-cleavage of 0.15. A50G U52C A138G gave a self-cleavage of 1.84. With A50G U52C U109A A140G the self-cleavage was 0. Work on A50G U52C U132A yielded a self-cleavage of 1.15. For A50G U52G A94G, the self-cleavage was 0. For A50G U62C U81A, the self-cleavage was 0.08. Work on A50G U62C U119C yielded a self-cleavage of 0. For A50G U73A U81A A92U, the self-cleavage was 0.26. Work on A50G U73A U112A U143A yielded a self-cleavage of 0.72. A50G U73C C113A U132A gave a self-cleavage of 1.26.
